In PubChem BioAssay AID624170 (National Center for Advancing Translational Sciences (NCATS), 2012):
Hit rate of the full screen: of about 410,000 compounds, about 850 (0.21%) were called active. The inconclusive results got no clear call from the source; some entries with a clear call stand among them for comparison. The call rests on the fitted dose curve; in most records, active means well fitted inhibition curve with a large enough effect; inconclusive means small, poorly fitted or top-dose-only effect, or another doubt; inactive means no such curve, though single readings can be large or run the other way. Where the call is inconclusive, the potency comes from a doubtful curve fit.

Biological target: Glutaminase kidney isoform, mitochondrial (Homo sapiens) (UniProt O94925)
Chain of UniProt O94925 (O94925 whole entry, looked up, canonical isoform): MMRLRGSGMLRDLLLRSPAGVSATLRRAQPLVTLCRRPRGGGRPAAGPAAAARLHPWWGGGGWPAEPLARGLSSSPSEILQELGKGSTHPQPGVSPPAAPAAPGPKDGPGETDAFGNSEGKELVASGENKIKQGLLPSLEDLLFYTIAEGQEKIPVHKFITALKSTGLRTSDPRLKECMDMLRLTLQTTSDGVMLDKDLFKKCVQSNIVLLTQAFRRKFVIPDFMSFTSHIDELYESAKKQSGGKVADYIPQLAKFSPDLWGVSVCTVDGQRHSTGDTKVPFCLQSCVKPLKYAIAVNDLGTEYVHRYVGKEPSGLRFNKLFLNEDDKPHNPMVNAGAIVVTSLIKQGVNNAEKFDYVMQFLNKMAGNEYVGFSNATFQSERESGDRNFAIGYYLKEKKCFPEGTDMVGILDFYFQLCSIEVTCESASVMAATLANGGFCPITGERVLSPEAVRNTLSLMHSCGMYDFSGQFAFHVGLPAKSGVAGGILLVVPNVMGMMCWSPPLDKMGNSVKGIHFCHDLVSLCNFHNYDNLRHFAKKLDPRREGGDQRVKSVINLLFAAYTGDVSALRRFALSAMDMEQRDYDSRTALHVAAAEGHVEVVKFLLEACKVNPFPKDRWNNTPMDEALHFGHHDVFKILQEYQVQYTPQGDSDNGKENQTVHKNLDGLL
Assay: qHTS for Inhibitors of Glutaminase (GLS)
Conditions: GLS enzymatic activity, qHTS titration; series mostly up to 45.5 µM; activity change, negative = inhibition: at the top concentration
Procedure, shortened: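 Two-point fluorescence kinetic (t0, 30 min RT) for hKGA; glutamate detected via glutamate oxidase–HRP–Amplex Red. Substrate: 1 mM L-glutamine solution; buffer 45 mM KH2PO4, pH 8.2.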
On the % scale 0 is the no-effect control and ±100 the full control effect; potency means the concentration at half of the fitted maximal effect; tags describe the fitted curve by direction and shape.

Potency, active:
COc1ccc(NS(=O)(=O)c2cc(NC(=O)[C@H](C)NC(N)=O)ccc2N2CCCC2)cc1 15.8 µM, CC(C1CC2CCC1C2)n1c(-c2ccco2)n[nH]c1=S (configuration not stated) 11.2 µM, COc1cc(C(C[N+](=O)[O-])c2c(C)cc3ccccn23)ccc1O (configuration not stated) 7.94 µM

Potency, inconclusive:
COc1ccc(N2CCN(c3ccc(NC(=O)NN)cc3)CC2)cc1 11.2 µM [inhibitor, single point], Cc1ccc2nc(N3C(=O)C(O)=C(C(=O)c4ccco4)C3c3cccs3)sc2c1 (configuration not stated) 35.5 µM [inhibitor, single point], COC(=O)c1c(-c2cccs2)csc1NC(=O)COc1ccc(C(C)(C)C)cc1 25.1 µM [inhibitor, single point], COc1ccc(OC)c(NC(=O)C2CCCN(S(=O)(=O)c3cccc4nsnc34)C2)c1 (configuration not stated) 22.4 µM [inhibitor, single point], O=C(NCc1cccs1)C1CCN(S(=O)(=O)c2cccc([N+](=O)[O-])c2)CC1 35.5 µM [inhibitor, partial curve, poor fit], O=C(CSc1nnc(-c2ccc(C(F)(F)F)cn2)s1)c1ccccc1 3.98 µM [inhibitor, single point], CC1CN(C(=O)COc2coc(CN3CCc4ccccc4C3)cc2=O)CC(C)O1 (configuration not stated) 6.31 µM [inhibitor, single point], CC1CCC2(CC1)NC(=O)N(CC(=O)Nc1sc3c(c1C(N)=O)CCC3)C2=O (configuration not stated) 15.8 µM [inhibitor, single point], COc1cccc(/C=C2\N=C(c3c(-c4ccccc4)noc3C)OC2=O)c1 25.1 µM [inhibitor, single point], Cc1cc(Cl)ccc1OCc1n[nH]c(=S)n1C1CCCCC1 35.5 µM [inhibitor, single point], CS(=O)(=O)N(CC(=O)NCc1ccc2c(c1)OCO2)Cc1ccccc1 35.5 µM [inhibitor, single point], NC(=N\N=CCc1ccccc1)/C(N)=N/N=CCc1ccccc1 35.5 µM [inhibitor, single point], CN1CCN(S(=O)(=O)c2ccc(N3CCc4ccccc4C3)nc2)CC1 35.5 µM [inhibitor, single point], CCOc1cc(C(c2c(O)nc(SC)[nH]c2=O)c2c(O)nc(SC)[nH]c2=O)ccc1O 11.2 µM [inhibitor, partial curve], CCCCCCCCCCOC(=O)Cn1c(COc2ccc(Cl)cc2)[n+](C)c2ccccc21 35.5 µM [inhibitor, single point], C=CC[C@H](CC(=O)NCCO)C(=O)N[C@H](COC(=O)[C@@H](CC=C)Cc1ccc(F)cc1)c1ccccc1 35.5 µM [inhibitor, single point], O=C1/C(=C/C=C/c2ccco2)SC(=S)N1c1ccc(O)cc1 10 µM [inhibitor, partial curve], O=C(Nc1ccccc1Cl)c1ccc2nc(N3CCOCC3)sc2c1 35.5 µM [inhibitor, partial curve, poor fit], CN1c2ccsc2/C(=N/Nc2ccc(F)cc2)CS1(=O)=O 12.6 µM [inhibitor, partial curve], COc1ccc(-c2oc3ccccc3c(=O)c2OCC(=O)O)cc1 35.5 µM [inhibitor, single point], CN(C)CCCn1c(=S)[nH]c2sc3c(c2c1=O)CCCC3 20 µM [inhibitor, single point], CCOC(=O)c1sc(N2C(=O)C(O)=C(C(=O)c3ccco3)C2c2cccc([N+](=O)[O-])c2)nc1C (configuration not stated) 35.5 µM [inhibitor, single point], NC(=O)COC(=O)c1ccc(-c2ccc(O)cc2)cc1 2.82 µM [inhibitor, full curve], CNC(=O)c1c(NC(=O)c2ccco2)sc(C)c1C 10 µM [inhibitor, partial curve], CCOC(=O)c1c(S(=O)(=O)N2CCCC(C(=O)Nc3cccc(C)n3)C2)c(C)n(C)c1C (configuration not stated) 35.5 µM [inhibitor, single point], O=C(O)c1c2c(nc3ccccc13)/C(=C/c1ccc(O)cc1)CC2 35.5 µM [inhibitor, single point], CCOc1cccc(/C=N/NS(=O)(=O)c2ccc(C)c([N+](=O)[O-])c2)c1O 11.2 µM [inhibitor, partial curve, poor fit], Cc1ccc(C2CC2c2n[nH]c(=S)n2-c2cccc(C)c2)cc1 (configuration not stated) 14.1 µM [inhibitor, single point], CNc1nc(-c2ccccc2)[n+](-c2ccc(C)cc2)s1 7.94 µM [inhibitor, partial curve, poor fit], Cc1ccc(NN2C(=O)C=C(c3ccccc3)C2=O)cc1 22.4 µM [inhibitor, single point], Cc1occc1C(=O)N/N=C/c1c(O)ccc2ccccc12 35.5 µM [inhibitor, single point], COc1ccc(C(C(=O)NC2CCCCC2)N2CCC3(CC2)OCCO3)cc1 (configuration not stated) 35.5 µM [inhibitor, single point], COc1ccc(C(=O)CC(=O)C(=O)Nc2cc(OC)ccc2OC)cc1 35.5 µM [inhibitor, single point], COc1ccc(C(=O)Nc2nc3cc4c(cc3s2)OCCO4)c(OC)c1 11.2 µM [inhibitor, partial curve], CCOC(=O)c1c(CN2CCN(CC#N)CC2)n(C)c2cc(Br)c(OC)cc12 35.5 µM [inhibitor, single point], O=C(O)c1cc(-c2ccc(/C=C3\NC(=O)N(c4ccccc4)C3=O)o2)ccc1Cl 15.8 µM [inhibitor, single point], CCOc1cccc(/C=N/NC(=O)c2ccc3c(c2)OCCO3)c1O 11.2 µM [inhibitor, partial curve, poor fit], Fc1cc(F)c2nc(Nc3nc4cc5c(cc4s3)OCO5)sc2c1 7.08 µM [inhibitor, partial curve], CCC(=O)OC1(C)C(=O)C=C2C=C(CCCC(=O)OC)OC=C2C1=O (configuration not stated) 17.8 µM [inhibitor, single point], O=C(Nc1cccc(Cl)c1)c1cccc(N2C(=O)C3CC=CCC3C2=O)c1 (configuration not stated) 20 µM [inhibitor, single point], NS(=O)(=O)c1cccc(NC(=S)NC(=O)c2cccc([N+](=O)[O-])c2)c1 15.8 µM [inhibitor, partial curve, poor fit], N#Cc1ccc(CC(=O)c2ccccc2)[nH]c1=O 35.5 µM [inhibitor, single point], CC(c1n[nH]c(=S)n1Cc1ccccc1)N(C)C (configuration not stated) 25.1 µM [inhibitor, single point]

Activity change, negative = inhibition, inactive:
Cc1c(-c2nsc(NC(=O)c3ccccc3)n2)nnn1-c1ccc(C(F)(F)F)c(Cl)c1 -9.89%, CCOC(=O)c1sc(S(C)=O)c2c1CCc1conc1-2 (configuration not stated) -13.6%, Cc1cccc(/C=C2\CS/C(=C\c3cccc(C)c3)C2=O)c1 12.7%, CCOc1ccccc1N1CCN(Cc2cc3c(cc2[N+](=O)[O-])OCO3)CC1 2.6%, CCN1C(=O)C(CC(=O)Nc2ccc(Br)cc2)N(CCCc2ccccc2)C1=S (configuration not stated) 6.65%, CO[C@H]1[C@H](O[C@H]2O[C@@H](C)[C@@H](O[C@@H]3C[C@](C)(O)[C@H](O)[C@H](C)O3)[C@@H](N(C)C)[C@@H]2O)[C@@H](CC=O)C[C@@H](C)[C@@H](O[C@H]2CC[C@H](N(C)C)[C@H](C)O2)/C=C\C=C/C[C@@H](C)OC(=O)C[C@H]1O 9.75% [at 20 µM], CCCC(=O)Nc1ccc(-c2nc3ncccc3o2)cc1C -17.6%, CSc1ccc(-c2nc(O)c3cnccn23)cc1 0%, CC(C)c1ccc(-c2nc(N3CCCCCC3)nc3n[nH]c(N)c23)cc1 3.1%, Cc1c(C2=CCN(S(=O)(=O)c3ccc(Br)cc3)CC2)c2ccccc2n1C 3.93%, CCCc1[nH][nH]c(=O)c1C(c1ccc(Br)cc1)C(C#N)C#N (configuration not stated) -8.33%, COc1ccccc1/C=C/C(=O)OCC(=O)NCc1ccco1 -9.36%, CCOc1ccccc1NC(=O)CSc1ccc(-c2sc(C)nc2C)nn1 2.07%, Cc1ccc(NC(=O)CSc2nc(-c3ccco3)cc(C(F)(F)F)n2)cc1 7.53%, CC1=C(c2ccc(C)cc2)S(=O)(=O)NC1=NCCCN1CCN(c2ccc(F)cc2)CC1 11.1%, CCN(CC(=O)Nc1ccc(C(C)=O)cc1)CC(=O)Nc1ccc2c(c1)OCCO2 -10.7%, CC(=O)N1CCN(c2nc3ccc([N+](=O)[O-])cc3s2)CC1 4.4%, C(=N\Nc1ccccc1)/c1nc2ccccc2s1 2.26%, CCOC(=O)c1ccc2c(c1)nc(SC/C(O)=C(\C#N)c1nc3ccccc3[nH]1)n2CC 9.22%, CCn1c2ccccc2c2cc(NC(=O)COC(=O)c3ccc(NC(=O)CC#N)cc3)ccc21 1.78%, CC(C)c1nnc(NC(=O)CCC(=O)NCc2ccc3c(c2)OCO3)s1 -4.99%
